The subject of the experiment is Plasmodium falciparum NF54 stage V gametocytes. The experiment in a line: viability index relative to DMSO control (fraction); higher = less gametocyte killing. Particulars: 2.5 µM, library set: Broad Institute DOS, incubation time: 72 h. The gist of the method: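 P. falciparum NF54 stage V gametocytes (serum-free medium, 0.75% gametocytemia, 1.25% hematocrit) were exposed to compound at 2.5 µM for 72 hr at 37°C under low oxygen, then stained with MitoTracker Red CMXRos and saponin for one to two hours. Red particles of 20–70 µm2 in one field per well were counted, and the viability index is that count scaled to the plate mean of solvent-only wells.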

± gives the uncertainty stated by the source. The full ranking holds about 9,900 compounds; the median of “viability index relative to DMSO control” is about 1, and the lowest 2% start at about 0.85. The list shows a part of the results.

The compound `C[C@H](CO)N1C[C@H](C)[C@H](CN(C)C(=O)[C@@H](Cc2ccccc2)N(C)C)OCc2ccccc2-c2c(n(C)c3ccccc23)C1=O` gave a viability index of 0.9723 ± 0.0017.
Then `CCN(C[C@@H]1[C@@H](c2ccccc2)[C@H](CO)N1C(=O)COC)S(C)(=O)=O`, with 1.03 ± 0.11; and `C[C@H](CO)N1C[C@H](C)[C@@H](CN(C)C(=O)Nc2cccc3ccccc23)Oc2c(NC(=O)C3CCOCC3)cccc2C1=O`, with 1.05 ± 0.08; and `C[C@@H]1CN([C@@H](C)CO)C(=O)c2cc(NC(=O)Nc3ccccc3)ccc2O[C@H]1CN(C)Cc1ccccc1`, with 0.979 ± 0.015.
For the compound `CO[C@H]1CN(C)C(=O)c2cc(NC(C)=O)ccc2OC[C@@H](C)N(C(=O)Cc2ccccn2)C[C@@H]1C`, the viability index was found to be 1.06 ± 0.017.
Regarding `C[C@H]1CCCCO[C@@H](CN(C)C(=O)CCCN(C)C)[C@@H](C)CN([C@@H](C)CO)C(=O)c2cc(NS(=O)(=O)c3ccc(Cl)cc3)ccc2O1`, the viability index was determined as 1.11 ± 0.074.
For `COc1ccc(S(=O)(=O)Nc2ccc3c(c2)C(=O)N([C@@H](C)CO)C[C@H](C)[C@@H](CN(C)C(=O)Nc2c(C)noc2C)OCCCC[C@H](C)O3)cc1` the value was 1.07 ± 0.19; for `O=C(c1ccc(F)cc1)N1C[C@@H]2N[C@H](C1)[C@H]2c1ccc(-c2cccnc2)cc1`, 1.08 ± 0.12.
For `CN(C[C@H]1N[C@@H](CO)[C@H]1c1ccc(-c2ccc(F)cc2)cc1)C(=O)C1CCC1` the value was 0.971 ± 0.025.
For `CCC(=O)N1[C@@H](CO)[C@@H](c2ccccc2)C12CN(C(=O)CN1CCOCC1)C2` the value was 1.159 ± 0.0063.
The compound `CCCNC(=O)N1CC(=O)N2[C@@H](CO)[C@H](c3ccc(-c4ccc(F)cc4)cc3)[C@@H]2C1` returned a viability index of 1.02 ± 0.1.
For `CN(C)C(=O)C[C@@H]1C[C@@H]2c3cc(NC(=O)Nc4ccc(F)cc4)ccc3O[C@@H]2[C@H](CO)O1` the value was 1.13 ± 0.093; for `C[C@@H]1CN([C@H](C)CO)C(=O)c2cc(NC(=O)Nc3ccc4c(c3)OCO4)ccc2O[C@@H](C)CCCCO[C@@H]1CN(C)S(=O)(=O)c1ccccc1`, 1.07 ± 0.069.
Compound `CN1C[C@@H](O)COC[C@H]2O[C@@H](CC(=O)NC3CCCC3)CC[C@@H]21` gave a viability index of 1.1 ± 0.047.
Then `COCC#Cc1ccc([C@H]2[C@H](CO)N3C(=O)CN(C(=O)C4CCCCC4)C[C@@H]23)cc1`, with 1.07 ± 0.045; and `C/C=C/c1ccc([C@@H]2[C@H]3CNC[C@@H]2N3C(=O)Nc2ccc(C(F)(F)F)cc2)cc1`, with 1.05 ± 0.047.
`O=C(C1CCCCC1)N1[C@H](CO)[C@@H]2c3ccccc3N(S(=O)(=O)c3ccccc3)C[C@@H]21` gave a viability index of 0.929 ± 0.18.
Take `O=C(C[C@H]1C=C[C@@H](NC(=O)CCN2CCCCC2)[C@H](CO)O1)Nc1nccs1`: the viability index amounted to 0.934 ± 0.057.
`O=C(C[C@@H]1CC[C@@H]2[C@H](COC[C@@H](O)CN2S(=O)(=O)c2cccc(Cl)c2)O1)N1CCOCC1` yielded a viability index of 1.1 ± 0.099.
For `COc1ccc(C#Cc2cccc(-c3nc(C(=O)N4CCN(Cc5ccccc5)CC4)cc4c3[C@@H](CCO)N(S(=O)C(C)(C)C)C4)c2)cc1OC` (stereo not given in full) the value was 0.826 ± 0.14.
Then `CN(C)Cc1cn(CC[C@H]2CC[C@H](NC(=O)Cc3cccnc3)[C@@H](CO)O2)nn1`, with 1.04 ± 0.049; and `C[C@H](CO)N1C[C@H](C)[C@H](CN(C)C(=O)Nc2ccc(-c3ccccc3)cc2)OCc2ccccc2-c2ccccc2C1=O`, with 0.904 ± 0.031; and `C(=C\c1ccc([C@H]2[C@@H]3CN(Cc4cocn4)C[C@H]2N3)cc1)/c1ccccc1`, with 1.01 ± 0.041.
For `COc1ccc2c3c([nH]c2c1)[C@@H](CO)N(C[C@]31CCN(Cc2ccccc2Cl)CC1)S(=O)(=O)c1cn(C)cn1` the value was 0.955 ± 0.018; for `CO[C@@H]1CN(C)C(=O)c2ccc(N)cc2OC[C@@H](C)NC[C@H]1C`, 1.08 ± 0.066.
The compound `C[C@H]1CN([C@@H](C)CO)C(=O)c2cc(-c3ccncc3)cnc2O[C@H]1CN(C)C(=O)CN1CCOCC1` showed a viability index of 1.01 ± 0.053.
Then `C[C@H](CO)N1C[C@H](C)[C@@H](CN(C)C(=O)Nc2cccc(Oc3ccccn3)c2)OCc2cnnn2CCCC1=O`, with 1.03 ± 0.047; and `C/C=C/c1ccc([C@H]2[C@@H](CO)N(S(C)(=O)=O)[C@@H]2CN(C(C)=O)C(C)C)cc1`, with 0.957 ± 0.06; and `O=C(C[C@@H]1CC[C@@H]2[C@H](COC[C@@H](O)CN2Cc2ccc3c(c2)OCO3)O1)N1CCCCC1`, with 0.99 ± 0.12.
With `COc1ccc2c3c([nH]c2c1)[C@@H](CO)N(C[C@]31CN(Cc2ccccc2)C1)S(=O)(=O)c1ccc(C)cc1`, the viability index amounted to 0.909 ± 0.098.
For `Cc1noc(C)c1NC(=O)Nc1ccc2c(c1)C(=O)N([C@@H](C)CO)C[C@H](C)[C@H](CN(C)S(=O)(=O)c1cccs1)OCCCC[C@@H](C)O2` the value was 1.09 ± 0.045.
For `C[C@@H](NC(=O)C[C@@H]1CC[C@@H]2[C@@H](COc3ccc(NS(=O)(=O)c4ccc(Cl)cc4)cc3C(=O)N2C)O1)c1ccccc1`, the viability index stood at 1.07 ± 0.047.
For `CCCC#Cc1ccc2c(c1)O[C@@H](CN(C)Cc1ccccn1)[C@@H](C)CN([C@@H](C)CO)S2(=O)=O` the value was 0.884 ± 0.045; for `CCCN(C)C[C@H]1Oc2cc(/C=C/c3ccccc3)ccc2S(=O)(=O)N([C@H](C)CO)C[C@@H]1C`, 1.02 ± 0.016.
`Cc1noc(C)c1NC(=O)N(C)C[C@H]1Oc2ccc(NC(=O)CCCN(C)C)cc2C(=O)N([C@H](C)CO)C[C@H]1C`: the viability index stood at 0.975 ± 0.17.

Values taken from the supplement of paper PMC4723716.
